Data published in US9540424B2, “Serum albumin binding molecules” (BRISTOL-MYERS SQUIBB COMPANY, priority 2010, dated 2017).
Entries with a single value are a further part of the results.

Experiment: Differential Scanning calorimetry (DSC) thermostability of midscaled SABAs
Type: physicochemical
Details: 1 mg/ml solution, 5° C. to 95° C. at 1 degree per minute
Experimental: Differential Scanning calorimetry (DSC) analyses of the midscaled SABAs were performed to determine their respective Tm's. A 1 mg/ml solution was scanned in a N-DSC II calorimeter (calorimetry Sciences Corp) by ramping the temperature from 5° C. to 95° C. at a rate of 1 degree per minute under 3 atm pressure. The data was analyzed vs. a control run of the appropriate buffer using a best fit using Orgin Software (OrginLab Corp).

B1: SABA2.1: His-tagged SABA2 sequence (protein)
chain: MGVSDVPRDLEVVAATPTSLLISWPKYDKTGHYYRITYGETGGNSPVQEFTVPTRQTTATISGLKPGVDYTITVYAVSKDDYYPHEHRPISINYRTEIDKPSQHHHHHH
modifications: His6 tag
- DSC (Tm) (first thermal transition (lower Tm)): 58.5 °C
- DSC (Tm) (second thermal transition (higher Tm)): 78.2 °C
